Source: publication PMC4336329 (PLoS ONE, 2015)
In all, about 310,000 compounds went through this assay and about 2,200 (0.71%) showed an effect of 50% or more. Effects have a minus sign here. The list shows a part of the results.

biological target: human ether-à-go-go-related gene (hERG) potassium channel (human, UniProt Q12809); assay: primary screen, population patch clamp on CHO cells stably expressing hERG
Sequence (Q12809 whole entry, looked up): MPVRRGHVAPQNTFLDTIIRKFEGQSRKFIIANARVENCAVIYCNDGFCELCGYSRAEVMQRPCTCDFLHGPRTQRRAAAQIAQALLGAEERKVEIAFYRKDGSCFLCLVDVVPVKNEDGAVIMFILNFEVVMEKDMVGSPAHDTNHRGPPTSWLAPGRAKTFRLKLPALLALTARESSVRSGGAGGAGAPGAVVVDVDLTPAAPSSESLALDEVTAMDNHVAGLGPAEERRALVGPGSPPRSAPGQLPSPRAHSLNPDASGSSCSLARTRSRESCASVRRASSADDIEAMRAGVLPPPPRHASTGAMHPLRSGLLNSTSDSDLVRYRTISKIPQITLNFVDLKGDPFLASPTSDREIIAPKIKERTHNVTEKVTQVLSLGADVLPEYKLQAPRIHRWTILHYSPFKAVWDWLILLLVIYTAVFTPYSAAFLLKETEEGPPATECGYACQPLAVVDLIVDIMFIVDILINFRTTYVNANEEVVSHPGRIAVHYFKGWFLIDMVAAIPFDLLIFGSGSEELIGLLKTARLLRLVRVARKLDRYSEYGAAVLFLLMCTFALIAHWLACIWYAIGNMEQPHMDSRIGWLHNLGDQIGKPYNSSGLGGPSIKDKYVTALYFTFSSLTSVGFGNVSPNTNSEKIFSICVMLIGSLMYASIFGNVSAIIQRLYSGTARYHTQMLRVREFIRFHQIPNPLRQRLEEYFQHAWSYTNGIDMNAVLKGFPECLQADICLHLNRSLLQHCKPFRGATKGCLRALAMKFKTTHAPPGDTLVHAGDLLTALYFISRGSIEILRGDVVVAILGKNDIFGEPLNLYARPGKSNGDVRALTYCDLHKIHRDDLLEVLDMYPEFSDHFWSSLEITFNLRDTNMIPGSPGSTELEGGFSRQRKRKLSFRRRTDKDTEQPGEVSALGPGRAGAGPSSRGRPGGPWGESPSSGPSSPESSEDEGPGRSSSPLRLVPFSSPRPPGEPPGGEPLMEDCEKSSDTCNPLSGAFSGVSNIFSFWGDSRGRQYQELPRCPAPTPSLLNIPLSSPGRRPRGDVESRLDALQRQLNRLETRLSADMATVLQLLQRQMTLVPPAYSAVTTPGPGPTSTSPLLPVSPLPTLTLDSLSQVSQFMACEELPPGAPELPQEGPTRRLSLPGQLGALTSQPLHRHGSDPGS

Row | Structure (SMILES) | hERG current change (%, negative = inhibition) at 1uM [%]
1 | NC(=O)c1cc(NC(=O)CCNS(=O)(=O)c2cccc(C(F)(F)F)c2)cc(C(N)=O)c1 | 6.43
2 | C/C(=N\Nc1ccc(F)cc1F)c1ccc(Br)s1 | 4.35
3 | CCOc1ccc(NC(=S)NC(=O)Cc2ccccc2)cc1 | 17.8
4 | COc1cccc(-c2nn(-c3ccccc3)cc2CNC(C)Cn2cncn2)c1 (stereo not shown) | -6.83
5 | COc1cc(NC(=O)CCCNC(=O)c2ccc(Cl)cc2)cc(OC)c1OC | 11.6
6 | CCCCCOC(=O)C1=C(C)Nc2nnnn2C1c1ccc(OC)c(OC)c1OC (stereo not shown) | -0.396
7 | CC1(OC(=O)C2CCCC2)C(=O)C=C2C=C(c3ccsc3)N(Cc3ccco3)C=C2C1=O (stereo not shown) | 0.72
8 | Cc1ccccc1C(=O)NC1CCN(CC(=O)Nc2ccccc2Cl)CC1 | 3.34
9 | O=C(NCCCNC(=O)c1ccccc1)c1ccccc1 | 15.2
10 | CC(=O)NC(Nc1nc2c(s1)CCCC2)(C(F)(F)F)C(F)(F)F | 17.3
11 | Cc1cc2cc(CNC(=O)c3cc4ccccc4o3)ccc2n1C | 5.82
12 | COc1ccc(C(CC(=O)Nc2ncccc2C)N2Cc3ccccc3C2=O)cc1OC (stereo not shown) | 10.8
13 | CC(C)(C)c1ccc(C(=O)Nc2ccc(N3CCOCC3)cc2)cc1 | 1.55
14 | CC(C)[C@H](NC(=O)C1CCN(S(=O)(=O)c2ccccc2)CC1)C(=O)NCc1ccc(F)cc1 | 8.06
15 | CCCC(=O)C1=C(O)C(C(=O)OC)C(C)(C)CC1=NC(C)C (stereo not shown) | 16.1
16 | CCOC(=O)c1ccc(NC(=O)c2cn(-c3ccccc3)nc2-c2ccncc2)cc1 | -0.574
17 | O=C(Nc1ccccc1)/C(=C1\CCCN1)[N+](=O)[O-] | 2.82
18 | C/C(=N/NC(=O)CNC(=O)COc1ccccc1)c1ccco1 | 4.15
19 | COc1ccc2cc(C(c3nnnn3CCc3ccccc3)N3CCCC(C)C3)c(=O)[nH]c2c1 (stereo not shown) | -0.626
20 | Cc1cc(SCCOc2ccc(Br)cc2)nc(N)n1 | 5.6
21 | Cc1cc(N2CCOCC2)n2nc(C(F)(F)F)c(-c3ccccc3)c2n1 | 9.68
22 | O=C(Nc1ccc2c(c1)C(=O)N(CC1CCCO1)C2=O)c1ccccc1Br (stereo not shown) | 2.87

Row | Structure (SMILES) | hERG current change (%, negative = inhibition) at 1uM [%]
23 | Cc1cccc(NC(=O)CSc2ccc(C(N)=O)cc2[N+](=O)[O-])c1C | 6.84
24 | O=C(Nc1ccccc1C(=O)NCCc1ccccc1)c1ccco1 | 11.5
25 | Cc1ccccc1NC(=O)c1nc(S(C)(=O)=O)ncc1Cl | 11.9
26 | Cc1cc(C)n2ncc(C(=O)NC3CCCCC3)c2n1 | 1.66
27 | CCN(C(=O)Nc1ccccc1OC)c1c(N)n(Cc2ccccc2)c(=O)[nH]c1=O | 11.8
28 | CCOC(=O)c1nn(-c2ccccc2)c(=O)c2c(N)scc12 | 8.79
29 | O=C(CSc1nnc(-c2cccnc2)s1)Nc1ccnc2ccccc12 | 6.56
30 | COCCSc1nc(N)c2c3c(sc2n1)CN(C)CC3 | 8.95
31 | O=C(c1cc(=O)[nH]c2ccc(Br)cc12)N1CCC2(CC1)OCCO2 | 7.64
32 | COc1ccc(S(=O)(=O)N2CCOC2CNC(=O)C(=O)NCCCN2CCOCC2)cc1 (stereo not shown) | 12.4
33 | COc1ccc(C(C)=O)cc1CSc1ccc2c(c1)OCCO2 | 15.2
34 | CN(C)/C=C/C(=O)c1cnc(-c2ccccc2)s1 | 8.35
35 | Nn1c(SCc2ccc(Br)cc2)nnc1-c1ccncc1 | 3.39
36 | CC1CCCCC1NC(=O)c1ccc(S(=O)(=O)NNC(=O)c2ccncc2)cc1 (stereo not shown) | 10.5
37 | CN(C)CCCN(C(=O)CCSc1ccccc1)c1nc2cc3c(cc2s1)OCO3.Cl | -1.2
38 | COCC(C)NC(=O)/C=C/c1ccc(OC)cc1 (stereo not shown) | 10.2
39 | CCCN1C2CCCC1CC(NC(=O)c1ccccc1F)C2 (stereo not shown) | -3.59
40 | CC1CCC(NC(=O)CC2Oc3ccccc3NC2=O)CC1 (stereo not shown) | 1.39
41 | CC1(C)C2CCC1(CS(=O)(=O)Nc1ccc(S(=O)(=O)NC3CCCCC3)cc1)C(=O)C2 (stereo not shown) | -3.91
42 | COc1ccccc1N(C(=O)c1snc(C(N)=O)c1N)C(C(=O)NCCC(C)C)c1ccco1 (stereo not shown) | 1.98
43 | O=[N+]([O-])c1ccccc1O[C@@H]1O[C@H](CO)[C@H](O)[C@H](O)[C@H]1O | 4.7
